Out of some 310,000 compounds screened, about 2,200 (0.71%) showed an effect of 50% or more. The effect is printed as a negative number. The list shows a part of the results.

Chain of human ether-à-go-go-related gene (hERG) potassium channel (Q12809 whole entry, looked up): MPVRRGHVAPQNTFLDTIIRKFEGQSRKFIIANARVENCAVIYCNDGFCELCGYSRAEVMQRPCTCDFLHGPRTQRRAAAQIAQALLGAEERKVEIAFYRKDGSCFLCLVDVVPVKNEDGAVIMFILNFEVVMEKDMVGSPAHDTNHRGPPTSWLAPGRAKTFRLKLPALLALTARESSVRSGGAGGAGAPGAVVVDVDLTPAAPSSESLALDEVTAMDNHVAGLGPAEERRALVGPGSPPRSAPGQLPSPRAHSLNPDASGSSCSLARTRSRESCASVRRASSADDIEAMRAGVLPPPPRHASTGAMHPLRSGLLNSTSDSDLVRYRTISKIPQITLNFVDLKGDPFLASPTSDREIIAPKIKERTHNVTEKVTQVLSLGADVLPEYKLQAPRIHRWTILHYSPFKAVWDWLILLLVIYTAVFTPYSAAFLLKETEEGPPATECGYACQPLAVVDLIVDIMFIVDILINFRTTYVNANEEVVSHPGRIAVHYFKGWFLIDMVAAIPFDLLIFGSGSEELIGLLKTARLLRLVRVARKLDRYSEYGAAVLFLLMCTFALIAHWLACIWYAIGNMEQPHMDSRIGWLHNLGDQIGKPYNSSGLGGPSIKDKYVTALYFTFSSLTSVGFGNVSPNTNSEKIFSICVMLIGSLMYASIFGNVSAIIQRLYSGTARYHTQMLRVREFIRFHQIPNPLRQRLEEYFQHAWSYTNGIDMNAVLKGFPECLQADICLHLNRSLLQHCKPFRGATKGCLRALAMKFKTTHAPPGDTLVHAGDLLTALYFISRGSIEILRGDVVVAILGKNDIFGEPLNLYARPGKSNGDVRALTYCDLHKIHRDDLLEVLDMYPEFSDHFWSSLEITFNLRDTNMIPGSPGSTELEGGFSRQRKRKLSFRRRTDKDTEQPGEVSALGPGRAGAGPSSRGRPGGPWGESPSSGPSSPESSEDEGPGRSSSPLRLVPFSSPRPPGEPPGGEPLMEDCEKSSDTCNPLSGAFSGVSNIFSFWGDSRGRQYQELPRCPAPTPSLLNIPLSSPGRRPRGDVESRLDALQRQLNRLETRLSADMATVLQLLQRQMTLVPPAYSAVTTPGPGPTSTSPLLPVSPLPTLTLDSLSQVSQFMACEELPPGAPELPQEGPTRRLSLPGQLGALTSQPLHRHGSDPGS

The assay addresses human ether-à-go-go-related gene (hERG) potassium channel (human, UniProt Q12809). Put plainly: primary screen, population patch clamp on CHO cells stably expressing hERG.
For `O=C(N=C1SC2CS(=O)(=O)CC2N1c1ccc(F)cc1)C1CCCCC1` (stereo not shown), the “hERG current change (%, negative = inhibition) at 1uM” value is on record as 9.03%.
In the case of `COc1ccccc1C(=O)N(CN1CCCC1=O)c1cccc(Cl)c1` it was 2.43%; in that of `Cc1ccc(S(=O)(=O)N2CCC3(CC2)OCCO3)cc1`, 19.6%; in that of `O=C(O)c1cccc(NC(=S)NCc2ccccc2)c1`, 9.95%.
Take `COc1ccc(/C=N\NC(=O)C2=NNC(=O)C2C)cc1` (stereo not shown): the “hERG current change (%, negative = inhibition) at 1uM” value is recorded as 6.23%.
With `Cc1ccc(S(=O)(=O)NC2(C(=O)O)CCCCC2)cc1` the figure was 1.62%.
With `C/C(N)=C(/C#N)C(=O)CSc1nnc(-c2ccccc2)n1C` the figure was 14.5%.
For the compound `COc1ccc(/C=C2\CCC(C3CCCC3)C2=O)cc1OC` (stereo not shown), the “hERG current change (%, negative = inhibition) at 1uM” value was found to be 13.5%.
In the case of `CC(NC(=O)c1ccccc1Cl)NC(=O)c1ccccc1Cl` it was 7.65%.
In the case of `O=C(CSc1nnc(Nc2ccccc2)s1)NCc1cccs1` it was 20.7%; in that of `CCOC(=O)NN1C(=O)c2ccccc2NC1(C)C`, 4.73%.
With `O=C(N/N=C/c1ccc(Cl)s1)c1ccccc1[N+](=O)[O-]` the figure was 14.1%; with `O=C(COC(=O)c1cc(-c2ccc(Cl)s2)nc2ccccc12)NCc1ccco1`, 5.02%.
For `Cc1ccc2oc(=O)c3cc(C(=O)NCCCN4C(C)CCCC4C)sc3c2c1` (stereo not shown), the “hERG current change (%, negative = inhibition) at 1uM” value is -12.8%.
For the compound `CCc1ccc(NC(=O)Cn2c3[n+](c4c(F)c(F)ccc42)CCCCC3)cc1.[I-]`, the “hERG current change (%, negative = inhibition) at 1uM” value was 17%.
With `CC(=O)Nc1ccc(NC(=O)CN2C(=O)COc3ccc(S(=O)(=O)N4CCCCC4)cc32)cc1` the figure was 9.47%; with `CC(C)Cn1c2c(c(O)c(C(=O)Nc3nc4ccccc4s3)c1=O)CCCC2`, 14%.
In the case of `Cc1ccc(-c2nnc(NCCCO)c3ccccc23)cc1` it was -1.07%; in that of `O=C(NCCCN1CCCC1=O)c1cccc(S(=O)(=O)N2CCCCC2)c1`, 7.22%; in that of `O=C(NCCOc1ccccc1)C1CCC(=O)N(CCCN2CCOCC2)C1` (stereo not shown), 10.8%.
With `O=C(CC1OC(=O)c2ccccc21)Nc1cccc(S(=O)(=O)N2CCCCCC2)c1` (stereo not shown) the figure was 0.598%.
Regarding `Cc1ccc(-c2nn(CCC#N)cc2C=C(C#N)C#N)cc1`, the “hERG current change (%, negative = inhibition) at 1uM” value is 9.62%.
`CCN1C(=O)CSc2ccc(C(=O)NCc3ccc(OC)cc3)cc21`: the “hERG current change (%, negative = inhibition) at 1uM” value came out at 4.71%.
With `COc1ccc(OC(=O)COc2ccccc2C)cc1`, the “hERG current change (%, negative = inhibition) at 1uM” value is 8.54%.
In the case of `COc1ccc(CN(C(=O)c2snc(C(N)=O)c2N)C(C(=O)NC2CCCC2)c2cc(OC)ccc2OC)cc1` (stereo not shown) it was 13.9%; in that of `Cc1ccc(NC(=O)CCN2CC(C)OC(C)C2)cc1.Cl` (stereo not shown), 11.5%; in that of `CCC(NC(=O)CCC(=O)N1CCN(S(=O)(=O)c2ccc(C)cc2)CC1)c1ccc(C)cc1` (stereo not shown), 6.42%.
As for `O=C(c1cc(Br)c(Br)s1)N1CCN(C/C=C/c2ccccc2)CC1`, the “hERG current change (%, negative = inhibition) at 1uM” value was found to be 14.1%.
With `O=C(Nc1ccccc1)c1cccc2c(Br)cccc12`, the “hERG current change (%, negative = inhibition) at 1uM” value turned out to be 13.2%.
In the case of `O=C(O)c1cccc(OCCN2CCCC2=O)c1`, the “hERG current change (%, negative = inhibition) at 1uM” value is reported as 15.9%.
Regarding `S=C(Nc1ccc2nc(-c3ccccn3)c(-c3ccccn3)nc2c1)N1CCOCC1`, the “hERG current change (%, negative = inhibition) at 1uM” value stood at 3.02%.
In the case of `O=C(OCC(=O)N(CCc1ccccc1)Cc1ccccc1)c1cc(S(=O)(=O)N2CCOCC2)ccc1F` it was 2.62%.
In the case of `Cc1ccc2nc(SCc3nc4cc(Cl)ccc4c(=O)[nH]3)[nH]c2c1` it was 1.02%; in that of `COC(=O)c1ccc(NC(=S)NC(=O)c2c(-c3ccccc3)noc2C)cc1`, 18%.
In the case of `CCCCOc1cc(CC2CNC(=O)N2)ccc1OC` (stereo not shown), the “hERG current change (%, negative = inhibition) at 1uM” value came out at 9.58%.
In the case of `O=C(Nc1ccccc1)OCCOc1ccccc1` it was -0.74%; in that of `Cc1ccccc1COc1cccc(/C=N/NC(=O)c2nnn(-c3nonc3N)c2C)c1`, 20.5%; in that of `Cc1ccc(OC(=O)c2c(C)nn(-c3ccccc3)c2C)cc1`, -1.64%.
With `O=C(NCCc1cccs1)C1CCC(=O)N(CCc2cccc(F)c2)C1` (stereo not shown), the “hERG current change (%, negative = inhibition) at 1uM” value is on record as -5.11%.
In the case of `O=C1C2C3C=CC(C3)C2C(=O)N1CNc1ccccn1` (stereo not shown) it was 0.339%; in that of `N#CC1(NC(=O)COC(=O)c2ccccc2SCC(=O)N2CCCC2)CCCCC1`, 12.6%.
In the case of `C=C(C(=O)c1ccccc1)C(c1ccccc1)C(C)C(=O)c1ccccc1` (stereo not shown) it was 6.46%; in that of `COc1ccc(/C=C2\C(=O)NC(=S)N2C(=O)c2ccc(F)cc2)cc1`, 11.1%.
